Some of the results follow.

For the experiment, the system named is S. aureus RN4220. The experiment can be described thus: growth inhibition call (relative growth <= 0.2). As to conditions: 50 µM.
On to `COCCNC(=O)CCC(=O)NN=c1nc2ccccc2c2nc(C)[nH]n12`, for which the growth inhibition call was “inactive”. The result for `C[C@@H]1CN([C@H](C)CO)C(=O)c2cc(NC(=O)C3CCCCC3)ccc2O[C@@H](C)CCCCO[C@H]1CN(C)Cc1ccc(Cl)c(Cl)c1` reads “inactive”.

With `C[C@@H]1CCCCO[C@H](CN(C)CC2CCCCC2)[C@@H](C)CN([C@H](C)CO)C(=O)c2cc(NC(=O)Nc3ccc(F)cc3)ccc2O1`, the growth inhibition call is “inactive”. In the case of `COC(=O)Nc1nc2ccc(Sc3ccccc3)cc2[nH]1`, the growth inhibition call was “inactive”.

With `Cc1noc(C)c1S(=O)(=O)Nc1ccc2c(c1)CC(=O)N([C@@H](C)CO)C[C@H](C)[C@@H](CN(C)Cc1ccc3c(c1)OCO3)O2`, the growth inhibition call was “inactive”.

Take `C[C@@H]1CN([C@H](C)CO)C(=O)c2cc(NC(=O)Nc3ccc(C(F)(F)F)cc3)ccc2O[C@@H]1CN(C)C(=O)Nc1ccc(C(F)(F)F)cc1`: the growth inhibition call is “inactive”. The entry for `COc1ccc2c3c([nH]c2c1)[C@@H](CO)N(C[C@]13CN(Cc2ccccc2)C1)S(=O)(=O)c1cn(cn1)C` is “inactive”; for `OCC1OC(O)(CO)C(O)C1O` (stereo not drawn) it is “inactive”; for `C[C@H](CO)N1C[C@H](C)[C@@H](CN(C)C(=O)Nc2ccc3c(c2)OCO3)Oc2ccc(NS(=O)(=O)c3cn(C)cn3)cc2CC1=O` it is “inactive”. The result for `COc1ccccc1OCCNCC(O)COc1cccc2[nH]c3ccccc3c12` (stereo not drawn) reads “inactive”; that for `CCc1nc2c(OCC(=O)c3ccc(Cl)cc3Cl)cccn2c1N(C=O)Cc1ccc(OC)cc1`, “inactive”. The result for `CN(C)CCc1cc(Br)c(OCCCNC(=O)/C=C/c2cc(Br)c(OCCN3CCCC3)c(Br)c2)c(Br)c1` reads “inactive”. As for `C[C@H](CO)N1C[C@H](C)[C@@H](CN(C)S(=O)(=O)c2ccc(F)cc2)Oc2ccc(NC(=O)Nc3ccc(C(F)(F)F)cc3)cc2C1=O`, the growth inhibition call was “inactive”. The result for `COc1ccc2[nH]c(=O)[nH]c(=O)c2c1` reads “active”; that for `Cc1ccc(N2C(=O)C(=O)NC2=S)cc1`, “inactive”. The result for `CCn1c(C)cc(C)c(C(=O)N2C[C@H]3C(=O)NC[C@@]3(C(=O)O)C2)c1=O` reads “inactive”; that for `CCN1C(C)(C)CC(Oc2ccc(C(=O)Nc3ccc(NC(=O)Nc4cc(C(C)(C)C)on4)cc3)nc2)CC1(C)C`, “inactive”; that for `O=C(C[C@H]1CC[C@H](NC(=O)Nc2ccc3c(c2)OCO3)[C@H](CO)O1)NCCCN1CCOCC1`, “inactive”.

The record behind these values is the antibiotic and cytotoxicity screens of Wong et al. (2023).
